Assay [1] deals with Salmonella enterica serovar Typhimurium SL1344. In words: bacterial growth OD600 after 18 h in MHB with 0.5 µg/mL polymyxin B; higher = more bacterial growth (less inhibition). As to conditions: 25 µM; polymyxin B 0.5 µg/mL; system: broth. On the procedure: (§1)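 Secondary screen of the 553 primary hits at 25 µM. (i) S. Typhimurium SL1344 grown in Mueller-Hinton broth with 0.5 µg/mL polymyxin B, OD600 read after 18 h. (ii) SAFIRE assay: RAW 264.7 macrophages infected with S. Typhimurium sifB::gfp (MOI 30); compound added 2 h post-infection; cells fixed at 18 h; GFP-positive pixel fraction per macrophage imaged by confocal microscopy and expressed as % of DMSO control.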

The test system is the same in assay [2]. Description: intramacrophage bacterial GFP load (SAFIRE), percent of DMSO control (% of DMSO); higher = more intracellular bacteria (less inhibition). As to conditions: 25 µM; system: infected RAW 264.7 macrophages. Here is the method: as §1

The other results are listed elsewhere or left out. No stated cut-off is given here; in the data, active = 25% or less and inactive = the rest. Single values are uncertain, as repeats are few or missing.
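Wherever bacterial growth OD600 after 18 h in MHB with 0.5 µg/mL polymyxin B is given: polymyxin B level opens the outer membrane while sparing the inner membrane, with novobiocin wells as reference growth inhibitor.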
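Wherever intramacrophage bacterial GFP load (SAFIRE), percent of DMSO control is given: compounds tested were the hits of an earlier 50 µM broth growth screen of a drug-like diversity library run with polymyxin B.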

`Cc1cccc(C(=O)N2CCCC(C(=O)c3ccc(-c4ccccc4)cc3)C2)n1` (stereo unspecified): the “bacterial growth OD600” value in assay [1] was 0.002. Also, in assay [2], the “intramacrophage bacterial GFP load” value was inactive: 26.6.
For `COc1cc(CN2CCOc3ccc(CN4CCc5sccc5C4)cc3C2)cc2c1OCO2`, in that order: 0.002 and active: 23.5.
Turning to `CN1C(=O)CC(CC(=O)N2CCCCC2c2nccs2)(c2ccc(-c3ccccc3)cc2)C1=O` (stereo unspecified), the “bacterial growth OD600” value in assay [1] is -0.004.
As to `CN(C(=O)CC(c1ccccc1)c1ccccc1Cl)C1CCOCC1` (stereo unspecified), the “bacterial growth OD600” value in assay [1] worked out at 0.005. Moreover, in assay [2], the “intramacrophage bacterial GFP load” value is inactive: 64.5.
On the same counts, the results for `COCC(=O)Nc1cnn(-c2cccc(C(=O)N3CCc4c([nH]c5ccccc45)C3C(C)C)c2)c1` (stereo unspecified) are 0 and inactive: 129.
As to `CN(CC1CCCCO1)C(=O)c1cn(Cc2ccc(Cl)cc2)nn1` (stereo unspecified), the “bacterial growth OD600” value in assay [1] came to 0.524.
Consider `Cc1cc(C)n(Cc2ccc(C(=O)N(Cc3ccncc3)Cc3cccc(OCCc4ccc(F)cc4)c3)cc2)n1`, for which the “bacterial growth OD600” value in assay [1] is 0.001.
Turning to `Cc1cc(-c2cc(F)cc3c2OC(CNC(=O)c2ccoc2)C3)ccc1F` (stereo unspecified), in assay [1], the “bacterial growth OD600” value was -0.004. For the same compound, the “intramacrophage bacterial GFP load” value in assay [2] is inactive: 201.
For the compound `Cc1ccccc1-c1noc(-c2ccc(N[C@H]3CC[C@H](O)CC3)nc2)n1`, the “bacterial growth OD600” value in assay [1] was 0.42.
The same measure, in the same setting: the same measure for `Cc1cccc(C(=O)NCc2nc(-c3ccccc3NC(=O)CC3CCCC3)oc2C)n1`: -0.003; for `COCc1ccc(CN2CCCC(C(=O)Nc3ccccc3-c3ccc(OC)cc3)C2)o1` (stereo unspecified): 0.629.
In the case of `O=C(NCCC1=CCCCC1)C1CC12CCN(C(=O)CCc1ccc3c(c1)OCO3)CC2` (stereo unspecified), in assay [1], the “bacterial growth OD600” value stood at 0.52. Moreover, in assay [2], the “intramacrophage bacterial GFP load” value was active: 19.6.
On the same counts, the results for `COc1cccc(-c2nc3ccc(C(=O)NCCc4scnc4C)cc3o2)c1` are 0.282 and inactive: 160.
As for `Cc1c(C(=O)NCC2COc3ccccc3O2)cnn1-c1ncc2c(n1)-c1ccccc1CCC2` (stereo unspecified), the “bacterial growth OD600” value in assay [1] worked out at 0.007.

These data come from the supplement of paper PMC12889115.
